# Results taken from PubChem BioAssay AID686979 (National Center for Advancing Translational Sciences (NCATS), 2013).
# The whole screen tested about 420,000 compounds, of which about 50,000 (12%) were called active. This list was built around the results that the source calls inconclusive (neither active nor inactive); the mix of calls is not that of the screen. Calls come from the whole dose curve; as a rule, active = well fitted inhibition curve with a large enough effect; inconclusive = small, poorly fitted or top-dose-only effect; inactive = flat fitted curve, though single readings scatter. Potencies of inconclusive entries are left out as doubtful fits.
# Experiment: qHTS for Inhibitors of human tyrosyl-DNA phosphodiesterase 1 (TDP1): qHTS in cells in presence of CPT; note: nearly all actives have a fitted effect of over 55% in size
# Conditions: chicken DT40 Tdp1-/-;hTDP1 cells + 20 nM CPT, ATP luminescence, 48 h; activity change, negative = growth inhibition: at 46.2 µM (top of the series) unless noted
# Outline: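 Chicken DT40 Tdp1-/- cells stably complemented with human TDP1 were seeded at 400 cells/well in medium containing 20 nM camptothecin, exposed to pin-transferred compounds, and grown at 37 °C for at least 48 hr. Viability was read as ATP luminescence.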
# % is set by controls: 0 for no effect and ±100 for the full control effect; potency is the fitted concentration of half-maximal effect; tags give direction and shape of the fitted curve.
SMILES,Potency,"activity change, negative = growth inhibition"
CCCCn1cnc2c(c(-c3ccccc3)c(-c3ccccc3)n2Cc2ccco2)c1=N,inactive,–
COc1c2occc2c(OC)c2c(=O)cc(C)oc12,"inconclusive [inhibitor, single point]",–
OC[C@@H]1CN(Cc2ccncc2)C[C@H](n2cnc3c(N4CCCC4)ncnc32)O1,"inconclusive [inhibitor, partial curve]",–
COc1cc(OC)cc(C(=O)NC(C)CCc2ccccc2)c1 (stereo not drawn),"inconclusive [inhibitor, single point]",–
CC(C)c1c(C(=O)NCCN2CCOCC2)cnn1-c1nccc(-c2ccco2)n1,inactive,–
COc1cc(Br)c(C2C(C#N)=C(N)Oc3n[nH]c(-c4cccnc4)c32)cc1OC (stereo not drawn),"inconclusive [inhibitor, single point]",–
CC(C)(O)CC[C@@H](O)[C@](C)(O)C1CC[C@@]2(O)C3=CC(=O)[C@]4(O)C[C@@H](O)[C@@H](O)C[C@]4(C)C3CC[C@]12C (stereo partly drawn),"inconclusive [inhibitor, partial curve]",–
C[C@@H]1CN([C@H](C)CO)C(=O)CCCn2nncc2CO[C@@H]1CN(C)S(=O)(=O)c1ccc2c(c1)OCCCO2,inactive,–
CCCCc1nc(Cl)c(C#N)c2c1CSC(C)(C)C2,inactive,–
CC1CN(C(=O)c2cccc(S(=O)(=O)N3CCN(c4ccc(F)cc4)CC3)c2)CC(C)O1 (stereo not drawn),active: 25.9 µM,–
COc1ccc2[nH]cc(CCNc3ccnc(-c4ccoc4)n3)c2c1,"inconclusive [inhibitor, single point]",–
CCc1ccc2c(c1)NC(=O)C2(C)Cc1ccc(F)cc1 (stereo not drawn),"inconclusive [inhibitor, single point]",–
COc1ccc2c(c1)C(=O)C(=O)N2CCS(=O)(=O)c1ccccc1,active: 7.31 µM,–
O=C(NCc1ccco1)C1c2ccccc2Oc2ccccc21,"inconclusive [inhibitor, partial curve]",–
Cc1cc(C)cc(OCC(=O)NCc2cc(C)nc3ccccc23)c1,"inconclusive [inhibitor, single point]",–
COC(=O)C1(CC2CC(c3cccc(Br)c3)=NO2)CCN(C(=O)OC(C)(C)C)CC1 (stereo not drawn),"inconclusive [inhibitor, single point]",–
CN(CC(=O)Nc1c(Cl)cccc1Cl)C(=O)Cn1[nH]c(=O)c2ccccc2c1=O,"inconclusive [inhibitor, single point]",–
COC(=O)c1cc2ccsc2n1Cc1ccccc1F,inactive,–
C/C(CC(=O)Nc1cc(C)ccn1)=N\NC(=O)c1ccccc1C,inactive,–
O=C(CCc1ccccc1)NNC(=O)Nc1ccc(Br)cc1,inactive,–
CC(=O)c1ccc(NC(=O)c2ccc3nc(-c4ccco4)c(-c4ccco4)nc3c2)cc1,"inconclusive [inhibitor, single point]",–
COc1ccc(/C=N/NC(=O)c2cc(-c3cccnc3)nc3ccccc23)c(OC)c1,–,inconclusive: -30.8% [inhibitor]

SMILES,Potency,"activity change, negative = growth inhibition"
Cc1ccc(NC(=O)CN(C)C(=O)c2cc(-c3cccs3)nn2-c2ccccc2)cc1,"inconclusive [inhibitor, partial curve]",–
C/C(=N\NC(=O)c1ccc2ccccc2c1)c1cccs1,"inconclusive [inhibitor, single point]",–
Cc1nn(-c2ccccc2)c(N2CCCC2)c1/C=N/NC(=O)c1cc(-c2ccccc2)nc2ccccc12,"inconclusive [inhibitor, single point]",–
O=C(NC(=S)Nc1ccc(NC(=O)c2cccs2)cc1)c1ccco1,"inconclusive [inhibitor, single point]",–
O=C(NC(=S)N1CCN(c2ccc(O)cc2)CC1)c1ccco1,"inconclusive [inhibitor, single point]",–
O=C(C1CCC(CNc2c(N3CCCCC3)c(=O)c2=O)CC1)N1CCc2ccccc2C1 (stereo not drawn),"inconclusive [inhibitor, single point]",–
C[C@@H]1CCCCO[C@@H](CN(C)S(=O)(=O)c2ccccc2)[C@@H](C)CN([C@H](C)CO)C(=O)c2cc(NS(=O)(=O)c3ccc(F)cc3)ccc2O1,"inconclusive [inhibitor, single point]",–
O=C(Nc1cccc(F)c1)N1CCC2(CC1)CCN(C(=O)c1cccc(F)c1)CC2,inactive,–
CCC(=O)Nc1cccc(NC(=O)c2ccccc2Cl)c1,inactive,–
CN1CCN(S(=O)(=O)c2ccc(N3CCN(c4ccccc4Cl)CC3)nc2)CC1,active: 20.6 µM,–
O=S(=O)(NCc1ccc(F)cc1)c1ccc2[nH]c3c(c2c1)CCCC3,"inconclusive [inhibitor, single point]",–
CC(Sc1ccccc1)C(=O)NNC(=O)c1ccncc1 (stereo not drawn),inactive,–
O=C(c1ccco1)N1CCN(C(=O)c2cccn3c(=O)c4c5c(sc4nc23)CCCC5)CC1,"inconclusive [inhibitor, single point]",–
COc1ccc(C(=O)Nc2cc(C)nn2-c2ccc(F)cc2)cc1,inactive,–
Cc1cc(/C=C(\C#N)C(N)=O)c(C)n1-c1ccc(N2CCOCC2)c([N+](=O)[O-])c1,active: 23.1 µM,–
COc1ccc(C)c2sc(=NC(=O)c3ccccc3)n(C)c12,"inconclusive [inhibitor, single point]",–
O=C(O)CCCC(=O)OCc1c(-c2ccccc2)ncc2ccccc12,"inconclusive [inhibitor, partial curve]",–
CCc1cccc(-n2c(=O)c3cccnc3n2CC(=O)Nc2ccc(OC)c(Cl)c2)c1,active: 20.6 µM,–
Fc1ccccc1CSc1nc2ccccc2[nH]1,"inconclusive [inhibitor, single point]",–
COc1ccc(NC(=O)C2Cc3ccccc3CN2S(=O)(=O)c2ccccc2)cc1OC (stereo not drawn),"inconclusive [inhibitor, single point]",–
COc1ccc(S(=O)(=O)Nc2c(C)cccc2C)cc1-n1cnnn1,–,inconclusive: -14.8% [inhibitor]
